Source: patent US5449612A, “Process for identifying candida by means of chromogenic substances” (Serbio, priority 1990, dated 1995)

What was measured:
[1] = system: Candida zeylanoides; assay: Growth with maltose as the carbon source; details: 10 to 40 g/l
Text: The specificity of the method of identification is ensured, according to the invention, by associating inhibitors with the substrate.
The carbon source will consist of a sugar, especially glucose or maltose, at a concentration of 10 to 40 g/l.

[2] = system: yeasts belonging to the group of the Candida and Torulopsis; assay: Growth inhibition by cycloheximide in the culture medium; assay type: cell-based; details: incorporated in the culture medium containing the substrate
Text: Among the inhibitors which are suitable, there may be mentioned especially antibacterial substances (such as chloramphenicol, gentamycin and the like) and antifungal substances (such as cycloheximide and the like, which, in the presence of a specific substrate of the invention, such as H-L-Pro-pNA, only permit hydrolysis by Candida albicans) for eliminating the contaminants or selecting the strains which it is desired to identify.

`OC[C@H]1O[C@H](O[C@H]2[C@H](O)[C@@H](O)C(O)O[C@@H]2CO)[C@H](O)[C@@H](O)[C@@H]1O` (mixture of isomers) [maltose] was tested, and the “inhibition of the growth of the strains of Candida zeylanoides” value [1] was “inhibiting the growth”.

In the case of `C[C@@H]1C[C@@H]([C@H](O)CC2CC(=O)NC(=O)C2)C(=O)[C@@H](C)C1` [cycloheximide], the “inhibition of growth of the yeasts which interfere with the specificity of the substrate for Candida albicans” value [2] is reported as “inhibits the growth”.
